Laboratory results: PubChem BioAssay AID485344 (National Center for Advancing Translational Sciences (NCATS), 2010)
Out of some 340,000 compounds screened, about 6,900 (2%) were called active. Cut-off read from the data, not from the text of the source: active = inhibition above about 30%; inactive = below that, where a call was filed. The entries are a selection whose mix differs from that of the whole data set. Where no call is shown, the source filed none.

molecular target: D(2) dopamine receptor (Homo sapiens) (UniProt P14416); assay: HTS Assay for Allosteric Antagonists of the Human D2 Dopamine Receptor: Primary Screen for Antagonists; conditions: HEK293 TREx D2 cells, calcium flux, dopamine EC80; at 10 µM; stronger effect = higher value; note: 0% is about no effect
Summary of the method: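 Calcium flux kinetic readout in an inducible HEK293 TREx D2 line plated overnight at 30 C. After 180 s compound exposure, an EC80 dopamine challenge follows with another 180 s kinetic read to detect antagonism.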

UniProt P14416, sequence (P14416 whole entry, looked up): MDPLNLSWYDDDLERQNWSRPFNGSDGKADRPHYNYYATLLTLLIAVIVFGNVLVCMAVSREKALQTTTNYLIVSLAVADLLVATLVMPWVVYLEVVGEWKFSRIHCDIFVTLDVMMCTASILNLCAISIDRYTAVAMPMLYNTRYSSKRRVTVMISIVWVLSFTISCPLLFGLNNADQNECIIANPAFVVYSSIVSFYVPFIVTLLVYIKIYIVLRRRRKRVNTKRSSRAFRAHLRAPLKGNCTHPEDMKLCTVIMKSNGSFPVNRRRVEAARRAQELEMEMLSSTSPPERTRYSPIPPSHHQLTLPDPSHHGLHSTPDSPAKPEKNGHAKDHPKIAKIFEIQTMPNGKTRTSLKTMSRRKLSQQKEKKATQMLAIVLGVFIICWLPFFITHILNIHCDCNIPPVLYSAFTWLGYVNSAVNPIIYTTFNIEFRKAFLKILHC

Point of comparison: `CCOC(=O)C1CCN(C(=O)CSc2n[nH]c(-c3ccccc3Cl)n2)CC1`, inhibition 2.91%. Against it:
- CCC(C)NC(=O)Cn1c(=O)n(CCCC(=O)NCc2ccc(C)cc2)c(=O)c2ccccc21 (stereo not given) — higher, 12.6%
- Cc1cn2c(=O)cc(COc3cc(C)c(Cl)c(C)c3)nc2s1 — lower, -7.96%
- Cc1cc(C)cc(NC(=O)c2sc3nc(-c4ccccc4)cn3c2C)c1 — higher, 24.7%
- CC(=O)Nc1nonc1-c1nnc(SCc2ccc(F)cc2Cl)n1C — higher, 16%
- Cc1ccc(NC(=O)CN2Cc3ccccc3C2=O)c(C)c1 — higher, 12.2%
- CCOC(=O)c1cccc(NC(=O)CCS(=O)(=O)c2ccc(Br)s2)c1 — lower, -12.9%
- COc1ccc(NC(=O)c2cc(-c3ccc4c(c3)OCO4)on2)c(OC)c1 — higher, 7.62%
- Cc1c(C)n(Cc2ccc(F)cc2)c2ccc(C(=O)N3CCN(c4ccc(Cl)cc4)CC3)cc12 — lower, -0.204%
- COc1ccc(/C=C/C(=O)Nc2ccc3nc(N4CCC(C)CC4)cc(C)c3c2)cc1OC — higher, 4.16%
- Cn1c(=O)c2c(nc(SCC(=O)Nc3ccc(F)cc3F)n2Cc2ccccc2)n(C)c1=O — higher, 7.94%
- CC1(C(=O)NC2CCCCC2)Cc2ccccc2C(=O)N1Cc1ccc(Cl)cc1 (stereo not given) — lower, -2.3%
- CCCn1c2ccccc2c2cnn(CC(=O)Nc3cccc(C(=O)OCC)c3)c(=O)c21 — lower, -9.52%
- CCOc1ccc(CNC(=O)CN2C(=O)CCn3nc(-c4cn(C)c5ccccc45)cc32)cc1OC — lower, -7.84%
- O=C(NCc1cccs1)c1nn(-c2ccccc2)nc1CO — lower, -7.51%
- COc1ccc(CCNC(=O)Cc2c(C)c3c(cc(C)c4c(C)c(C)oc43)oc2=O)cc1OC — higher, 12.9%
- Cc1ccc(NC(=O)Cn2c(=O)n(-c3ccc(C)cc3)c(=O)c3ccc(C(=O)NCc4ccccc4Cl)cc32)cc1 — higher, 4.15%
- Cc1ccc(S(=O)(=O)c2nc(-c3ccco3)oc2SC(C)C)cc1 — higher, 20.9%
- COc1ccc(C)cc1NC(=O)c1cc2c(s1)-c1ccccc1SC2 — higher, 9.03%
- CC(=O)Nc1cc(C(=O)NCc2ccc(F)cc2)ccc1Sc1ccc(C)cc1 — higher, 9.57%
- CC1CCN(S(=O)(=O)c2ccc3ncn(CC(=O)Nc4ccccc4C(F)(F)F)c(=O)c3c2)CC1 — lower, -0.768%
- Cc1nn(-c2ccccc2)c(-n2cccc2)c1C(=O)NCc1ccccc1Cl — lower, -5.59%
- O=C1CN(C(=O)c2ccc(Cl)cc2Cl)C(c2ccc(F)cc2)c2cc(F)ccc2N1 (stereo not given) — lower, 1.76%
- Cc1cc(OCC(=O)Nc2cnn(CCCC(=O)O)c2)ccc1Cl — higher, 5.29%
- CN(C)c1ccc(C(CNC(=O)Cc2ccc(Cl)cc2)N2CCOCC2)cc1 (stereo not given) — lower, -7.63%
- CCN(CC)S(=O)(=O)c1ccc2c(c1)c(=O)c(C(=O)N(C)Cc1ccccc1)cn2C — higher, 8.89%
- Cc1cc(C)cc(NC(=O)CSc2nnc(COc3ccccc3Cl)o2)c1 — lower, -14.4%
- Cc1ccc(C)c(NC(=O)CCCN2C(=O)COc3ccc(C)cc32)c1 — higher, 10.5%
- CN(C)c1ccc(CNC(=O)c2cc3ccccn3n2)cc1 — lower, 2.19%
- Cn1cnc2c(=O)oc3ccc(S(=O)(=O)N4CCN(c5ccccc5)CC4)cc3c21 — higher, 4.01%
- CC(C)(C)OC(=O)N1CCC(c2c(C(=O)Nc3cccc(C(F)(F)F)c3)cnn2-c2ccc(F)cc2F)CC1 — higher, 12.4%
- COc1ccc(OC)c(NCc2cccn2-c2nnc(N3CCC(C)CC3)s2)c1 — lower, -10.1%
- CC(C)(C)OC(=O)N1CCC(c2c(C(=O)Nc3ccc4c(c3)OCCO4)cnn2-c2ccc(F)cc2)CC1 — higher, 5.39%
- Cc1ccc(CNC(C)c2ccccc2)s1 (stereo not given) — lower, -1.41%
- Cc1cccc(-c2nc3c(cnn3-c3ccccc3)c(=O)n2-c2cccc(Cl)c2)c1 — higher, 11.8%
- O=C(NCCc1ccccc1)c1ccc2c(c1)N(Cc1ccccc1)C(=O)c1ccccc1S2=O (stereo not given) — lower, -0.435%
- Cc1ccc(CCNC(=O)CN2C(=O)COc3ccc(S(=O)(=O)N4CCCCC4)cc32)cc1 — higher, 5.9%
- Cc1ccc(C(CC(=O)NCC2(c3ccccc3)CCCC2)c2ccccc2)c(O)c1 (stereo not given) — lower, 1.76%
- Cc1ccc(Nc2nnc(-c3ccc(C)c(S(=O)(=O)N4CCCCC4)c3)c3ccccc23)cc1 — higher, 8.26%
- CCOc1ccc2c(c1)[C@@H]1C=CC[C@@H]1[C@H](c1ccccc1Cl)N2 — higher, 4.54%
- COc1ccc(N2CCN(C(=O)C3CCN(S(=O)(=O)Cc4ccccc4)CC3)CC2)cc1 — lower, -4.19%
- Cc1ccc(CNC(=O)CN2C(=O)C3(SCC(=O)N3c3cc(C)cc(C)c3)c3ccccc32)cc1 (stereo not given) — lower, -15%
- Cc1nc(-c2cccc(F)c2)sc1CCNC(=O)c1ccc(F)c(F)c1 — lower, 2.08%
- CN(C(=O)CSc1nc2ccccc2n1CC(=O)N(C)c1ccc(F)cc1)c1ccccc1 — lower, -6.43%
- COc1cc(NC(=O)c2cc(-c3ccc(Cl)c(Cl)c3)on2)cc(OC)c1OC — lower, -5.05%
- Cc1c(CNCCc2ccc(S(N)(=O)=O)cc2)c(C(=O)O)c(C)n1Cc1ccc(Cl)cc1 — lower, -8.61%
- CCCCC(=O)Nc1nnc(S(=O)(=O)N(CC)c2cc(C)cc(C)c2)s1 — lower, 2.84%
- CCOc1ccc(/C=C(\C#N)C(=O)Nc2sc3c(c2C(=O)OC)C(C(=O)OC)CC3)cc1OC (stereo not given) — lower, -5.68%
- O=C(C1CC1)N1CCc2cc(Br)cc(S(=O)(=O)N3CCN(c4ccccc4)CC3)c21 — higher, 5.55%
- CCc1ccc(NS(=O)(=O)c2ccc(C(=O)N(C)C)s2)cc1 — higher, 10.1%
- CCc1ccc(-c2cn3c(n2)sc2cc(C(=O)NCC(C)c4ccccc4)ccc23)cc1 (stereo not given) — lower, -17.6%
- CCc1ccc(N2CCn3c2nc2c3c(=O)n(Cc3c(F)cccc3Cl)c(=O)n2C)cc1 — higher, 14.3%
- Cc1ccc2nc(NS(=O)(=O)c3ccc(Cl)cc3)c(Nc3ccc(C(=O)O)cc3)nc2c1 — higher, 3.75%
- Cc1nnc2c(N3CCN(c4ccccc4)CC3)nc3ccc(C(=O)c4ccccc4)cc3n12 — lower, -3.31%
- Cn1cc(-c2cc3n(n2)CCC(=O)N3CCCC(=O)Nc2ccc(F)cc2F)c2ccccc21 — lower, -5.79%

With `OCCC1CN(Cc2cccn2-c2ncccn2)CCN1Cc1ccccc1` (stereo not given) the inhibition was active: 30.6%.
In the case of `CN(CCOc1ccccc1)CC(O)COc1ccccc1` (stereo not given), the inhibition is reported as active: 51%.
For `CC(=O)Nc1ccc(S(=O)(=O)Nc2ccc(F)c([N+](=O)[O-])c2)cc1`, the inhibition was active: 43%.
`O=C(CC1SC(N2CCOCC2)=NC1=O)Nc1ccccc1Cl` (stereo not given) was tested, and the inhibition was active: 39.7%.
For `COC(=O)C1C(O)CCC2CN3CCc4c([nH]c5ccccc45)C3CC21` (stereo not given), the inhibition was active: 49.9%.
